This note sets out measurements from PubChem BioAssay AID463173 (ICCB-Longwood Screening Facility, Harvard Medical School, 2010).

Each structure is given as a SMILES string. Hit rate of the full screen: of about 52,000 compounds, about 1,700 (3.3%) were called active. Cut-off read from the data, not from the text of the source: active = survival mostly below about 52% (no sharp cut-off); inactive = mostly above about 56%. Some of the results follow.

The assay deals with Wild type. The experiment in a line: growth inhibition of S. aureus wild type versus tarO mutant, primary screen, teichoic acid synthesis inhibitors, RN4220, OD600 (AID 463173). The settings on record: S. aureus RN4220 wild type/DeltatarO growth, OD600, 18 h, hits give low values, screened at 18.75 µg/mL (by protocol).
For `CCOc1ccc(N(C)S(=O)(=O)c2c(C(=O)N3CCC(C)CC3)c(C)n(C)c2C)cc1`, the survival was inactive: 66%.

For `Cc1cccc(-n2ncc(C(=O)N3CCN(Cc4ccccc4)CC3)c2C2CCN(C(=O)OC(C)(C)C)CC2)c1`, the survival is inactive: 70%.

On to `CCOc1ccccc1NC(=O)N1c2ccccc2Sc2ccccc21`, for which the survival is inactive: 61%.

As to `COc1ccc(Cn2c(CCC(=O)Nc3ccc(C)cc3)nc3cccnc32)cc1`, the survival is inactive: 133%.

Take `COc1ccc(Nc2cc(C(=O)NCc3cccs3)c3ccccc3n2)cc1`: the survival was inactive: 145%.

On to `CCCCOC(=O)Cn1nnc2sc(-c3ccccc3)cc2c1=O`, for which the survival is inactive: 92%.

Turning to `CN1CCN(C(=O)C(=O)Nc2c3c(nn2-c2cccc(Cl)c2)CSC3)CC1`, the survival was inactive: 60%.

As to `COc1ccc(CCNC(=O)CSc2cn(CCNC(=O)c3ccccc3F)c3ccccc23)cc1OC`, the survival is inactive: 144%.

With `O=C(CCCCn1c(=O)c2ccccc2n(CC(=O)Nc2ccc(F)cc2F)c1=O)NCc1ccccc1Cl`, the survival was inactive: 115%.

With `O=C(CSc1ncc(-c2ccccc2)[nH]1)Nc1ccc(F)cc1F`, the survival was inactive: 62%.

Take `CCOc1ccc(C2=C(C(=O)CC)Sc3nncn3N2C(=O)CC)cc1`: the survival is active: -1%.

On to `CCc1ccccc1N1C(=O)N(CC(=O)c2ccc(Cl)cc2)c2ccccc2S1(=O)=O`, for which the survival was inactive: 99%.

As for `Cc1ccc(Cn2c(=O)n(CCc3ccccc3)c(=O)c3c(C)c(C)sc32)cc1`, the survival was active: 22%.

Regarding `Cn1c(=O)n(C)c2cc(NC(=O)C(F)(F)F)ccc21`, the survival was inactive: 83%.

On to `COC(=O)c1c(SC)nc2ccccc2c1OCc1ccc(C)cc1`, for which the survival is inactive: 75%.

In the case of `CCOC(=O)c1cc(S(=O)(=O)N2CCN(c3cccc(OC)c3)CC2)[nH]n1`, the survival is inactive: 120%.

Turning to `CCCCn1cc(S(=O)(=O)c2ccc(Cl)cc2)c(=O)c2cc(F)c(N3CCCC(C)C3)cc21` (configuration not stated), the survival was inactive: 127%.

For `CCOC(=O)Cn1c(=O)oc2cc(S(=O)(=O)N3CCCC(C)C3)ccc21` (configuration not stated), the survival was inactive: 130%.

Consider `O=C(NCc1ccc(Cl)cc1)c1ccc2oc(=O)n(Cc3ccccc3)c2c1`, for which the survival is inactive: 129%.

With `COC(=O)c1c(-c2ccc(Cl)cc2)noc1N1CCN(c2cccc(C)c2C)CC1`, the survival is inactive: 85%.

On to `c1ccc(-n2nc3ccc4nonc4c3n2)cc1`, for which the survival is inactive: 104%.

With `CCc1cnc2c(c1SCC(=O)Nc1ccc(OC)c(OC)c1)c(=O)n(C)c(=O)n2C`, the survival is inactive: 71%.

Consider `CCCC1=Nc2cc(C(=O)NCC(C)c3ccccc3)ccc2Sc2ccccc21` (configuration not stated), for which the survival was inactive: 75%.

Turning to `COc1ccc(S(=O)(=O)N(CCc2ccccc2)CC(N)=O)cc1`, the survival was inactive: 111%.

On to `CCOc1ccc(CNC(=O)Cn2cc3c(n2)-c2c(oc(C(=O)N4CCCC4)c2C)CC3)cc1`, for which the survival is inactive: 87%.

For `COc1cccc(CNC(=O)Cn2nc3c(cc2=O)CCCC3)c1OC`, the survival is inactive: 79%.

With `CC1CCCN(C(=O)CCS(=O)(=O)c2cc3c(cc2Cl)NC(=O)CO3)C1` (configuration not stated), the survival was inactive: 88%.

In the case of `Cc1ccc(C2c3c(-c4ccccc4O)n[nH]c3C(=O)N2CCc2ccccc2)cc1` (configuration not stated), the survival is inactive: 58%.

On to `CC(=O)N1c2c(cc(Br)cc2S(=O)(=O)Nc2ccc(OC(F)(F)F)cc2)CC1C` (configuration not stated), for which the survival was inactive: 105%.

Turning to `CCOC(=O)c1noc2ncn(Cc3cccc(C#N)c3)c(=O)c12`, the survival is inactive: 134%.

With `O=C(CCCn1c(=O)[nH]c2ccsc2c1=O)N1CCN(c2cccc(C(F)(F)F)c2)CC1`, the survival was inactive: 72%.

Turning to `Cc1cc(Cl)ccc1NC(=O)CN1C(=O)COc2ccc(S(=O)(=O)N3CCC(C)CC3)cc21`, the survival is inactive: 106%.

With `O=C(Nc1ccc(Cl)cc1)c1cc(S(=O)(=O)N2CCCc3ccccc32)ccc1F`, the survival is inactive: 136%.

In the case of `COc1ccc(OCC(=O)Nc2nc(-c3ccc(Br)cc3)ns2)cc1`, the survival was inactive: 77%.

Consider `CCNc1nc(NC(C)CC)nc(Oc2ccc(OCC)nn2)n1` (configuration not stated), for which the survival is inactive: 134%.

As for `COc1ccc(NC(=O)NCc2c(-n3cccc3)sc3c2CCCC3)c(OC)c1`, the survival is inactive: 79%.

With `CCc1cccc(C)c1NC(=O)NC1COc2ccccc2C1` (configuration not stated), the survival is inactive: 124%.

Regarding `COc1ccccc1CN(Cc1ccco1)c1cnc(S(C)(=O)=O)nc1C(=O)Nc1ccccc1Cl`, the survival is inactive: 83%.

For `Cc1c(C(=O)OC2CCC(C)CC2)[nH]c2c1C(=O)CC(c1ccccc1Cl)C2` (configuration not stated), the survival is inactive: 88%.

As to `CCOc1ccc(CCNC(=O)CCCc2nnc3n(C)c(=O)c4sccc4n23)cc1OCC`, the survival was inactive: 83%.

Consider `COc1ccc(NC(=O)CSc2nc(-c3ccc(OC)c(OC)c3)[nH]c2-c2ccc(C)cc2)cc1`, for which the survival is inactive: 139%.

In the case of `COc1ccc(NCc2cc3cc4c(cc3n(CC(=O)Nc3ccccc3)c2=O)OCO4)cc1`, the survival is inactive: 128%.
